Reference: patent US20250326823A1
Where two headings read alike, the source gives them in different places.

Tests used:
[1] = molecular target: SARS-CoV-2 XBB.1.5 spike (S) protein (SARS-CoV-2); test: cell-based or functional assay
[2] = molecular target: SARS-CoV-2 XBB.1.5 spike (S) protein (SARS-CoV-2); test: cell-based or functional assay; remark: listed apart in the source

B1: MX1545 (bispecific antibody)
chain: EIVLTQSPGTLSLSPGETATLSCRASQSFSSDLAWYQQKPGQAPRLLIYGASSRATGIPDRFSGSGSGTDFTLTISRLEPADFAVYYCQQYGSSPPVTFGGGTKVEIKRTVAAPSVFIFPPSDEQLKSGTASVVCLLNNFYPREAKVQWKVDNALQSGNSQESVTEQDSKDSTYSLSSTLTLSKADYEKHKVYACEVTHQGLSSPVTKSFNRGECGGGGSGGGGSGGGGSDTVMTQSPLSLPVTPGEPASISCRSSQSLLNSNGYNYLDWYVQKPGQSPQLLIYLGSNRASGVPDRFSGSGSGTDFTLKISRVEAEDVGVYYCMQPLQTPLFTFGPGTKVEIKGGGGSGGSGSGGGGSASGSGQVTLRESGPALVKPTQTLTLTCTFSGFSLSTRGVCVSWIRQPPGKALEWLAFIDWDDDKYYQTSLKTRLTISKDTSKNQVVLTMTNVHPVDTATYYCARISSHHGSSWCTTFDYWGQGALVTVSAGGSSGEVQLVESGGGLIQPGGSLRLSCAASGVIVSYNYMNWVRQAPGKGLEWVSVIYSGGSTFYADSVRGRFTISRDNSKNTLYLQMNSLRAEDTAVYYCARDLGPAGAFDIWGLGTMVTVSS[sequence of human IgG1 constant region with changes omitted]
[1]
  pseudovirus neutralization IC50: 170 pM
  pseudovirus neutralization IC80: 510 pM
[2]
  pseudovirus neutralization IC50: 190 pM
  pseudovirus neutralization IC80: 220 pM
